# Assay results as given in PubChem BioAssay AID504332 (National Center for Advancing Translational Sciences (NCATS), 2011).
# The whole screen tested about 350,000 compounds, of which about 31,000 (8.9%) were called active. Inconclusive results, whose numbers are uncertain, are shown with a selection of clear calls. Calls come from the whole dose curve; as a rule, active = well fitted inhibition curve with a large enough effect; inconclusive = small, poorly fitted or top-dose-only effect; inactive = no such curve, though single readings can be large or run the other way. Where the call is inconclusive, the potency comes from a doubtful curve fit.
# Biological target: Histone-lysine N-methyltransferase EHMT2 (Homo sapiens) (UniProt Q96KQ7)
# Sequence of UniProt Q96KQ7 (Q96KQ7 whole entry, looked up): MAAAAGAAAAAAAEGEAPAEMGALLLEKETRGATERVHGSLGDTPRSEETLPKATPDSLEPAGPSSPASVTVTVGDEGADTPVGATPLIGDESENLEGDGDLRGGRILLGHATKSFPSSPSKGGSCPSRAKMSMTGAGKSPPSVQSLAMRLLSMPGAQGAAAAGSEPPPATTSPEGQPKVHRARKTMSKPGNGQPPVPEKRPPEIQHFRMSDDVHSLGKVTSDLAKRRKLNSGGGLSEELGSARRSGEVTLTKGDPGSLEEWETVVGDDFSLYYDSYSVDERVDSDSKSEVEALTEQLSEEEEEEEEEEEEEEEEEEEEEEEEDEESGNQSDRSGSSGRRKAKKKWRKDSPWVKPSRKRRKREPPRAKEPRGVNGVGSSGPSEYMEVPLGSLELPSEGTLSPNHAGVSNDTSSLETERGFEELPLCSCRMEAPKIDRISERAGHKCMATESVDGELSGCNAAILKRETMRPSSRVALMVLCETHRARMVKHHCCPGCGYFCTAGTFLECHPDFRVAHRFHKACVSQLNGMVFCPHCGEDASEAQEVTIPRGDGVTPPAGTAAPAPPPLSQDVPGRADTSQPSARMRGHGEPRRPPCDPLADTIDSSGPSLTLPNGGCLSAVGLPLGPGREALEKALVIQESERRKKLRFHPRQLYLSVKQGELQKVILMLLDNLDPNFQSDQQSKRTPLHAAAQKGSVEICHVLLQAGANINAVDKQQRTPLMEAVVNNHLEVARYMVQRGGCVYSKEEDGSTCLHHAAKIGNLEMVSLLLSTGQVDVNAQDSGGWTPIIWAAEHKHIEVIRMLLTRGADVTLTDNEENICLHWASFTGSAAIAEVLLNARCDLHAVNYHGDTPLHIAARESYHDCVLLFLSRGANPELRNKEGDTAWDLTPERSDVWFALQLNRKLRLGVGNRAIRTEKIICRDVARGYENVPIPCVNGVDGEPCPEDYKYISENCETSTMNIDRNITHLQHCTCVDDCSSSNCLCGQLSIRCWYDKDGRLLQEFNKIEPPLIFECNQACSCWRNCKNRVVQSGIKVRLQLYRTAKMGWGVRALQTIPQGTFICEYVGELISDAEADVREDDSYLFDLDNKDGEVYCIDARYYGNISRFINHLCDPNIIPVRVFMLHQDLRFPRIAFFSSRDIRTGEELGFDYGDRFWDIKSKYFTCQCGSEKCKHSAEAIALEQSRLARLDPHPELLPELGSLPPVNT
# Assay: qHTS Assay for Inhibitors of Histone Lysine Methyltransferase G9a; note: nearly all actives have a fitted effect of over 75% in size
# Details: G9a H3K9 monomethylation, AlphaScreen, 2 h; activity, negative = inhibition: at 59 µM (top of the series) unless noted
# Method in brief: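 Step 1: enzyme (final 20 nM) with compound, 15 min RT. Step 2: substrate peptide 500 nM and SAM 20 uM, 2 h RT. Step 3: anti-H3K9me1 antibody and AlphaScreen beads, 10 min, then plate read.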
# % is set by controls: 0 for no effect and ±100 for the full control effect; potency is the fitted concentration of half-maximal effect; tags give direction and shape of the fitted curve.
Compound,Potency,"activity, negative = inhibition"
O=C(CN1CCOCC1)Nc1ccccc1F,"inconclusive: 100 µM [inhibitor, single point]",
CC(O)CNC(=O)C(=O)Nc1c2c(nn1-c1ccc(Cl)cc1)CSC2 (centres undefined),"inconclusive: 3.98 µM [inhibitor, full curve, poor fit]",
CCOc1ccc2c(c1)c(N=Nc1cccc(C(=O)O)c1)c(O)n2C,"inconclusive: 28.2 µM [inhibitor, single point]",
COc1cccc(Nc2ncc3nc(-c4cn(C)c5ccccc45)c(=O)n(C[C@H]4CCCO4)c3n2)c1,,inactive: 9.78% [at 0.501 µM]
Cc1csc(SCCN2C(=O)c3ccccc3C2=O)n1,"inconclusive: 56.2 µM [inhibitor, partial curve, poor fit]",
CCN(C(C)=O)N(CC)c1nc(Cl)nc(NC(C)C)n1,"inconclusive: 31.6 µM [inhibitor, single point]",
Cc1ccc2[nH]c(C(=O)N/N=C/c3ccccc3O)c(C)c2c1,,inactive: 13.8% [at 102 µM]
CCN1CCN(CCCNC(=O)Cn2c(-c3cccs3)cc3ccccc32)CC1,,inactive: -29%
CCOC(=O)C(NC(=O)Nc1cccc(C)n1)(OCC(F)(F)F)C(F)(F)F (centres undefined),"inconclusive: 79.4 µM [inhibitor, partial curve, poor fit]",
O=C(O)Cn1c(SCc2ccccc2)nc2ccccc21,,inactive: -36.1% [at 102 µM]
CCOC(=O)N1CCc2c(sc(NC(=O)Cc3ccccc3)c2C(=O)c2ccc(OC)cc2)C1,"inconclusive: 25.1 µM [inhibitor, full curve]",
COc1ccc(C2CC(c3cccs3)=NN2C(=O)CCl)cc1OC (centres undefined),"inconclusive: 89.1 µM [inhibitor, single point]",
Cc1cc(/C=C2/SC(=O)N(CC(=O)N3CCOCC3)C2=O)c(C)n1-c1ccccc1F,,inactive: -2.79%
Cc1cc(O)c(/C=N/Nc2ccccc2)c(=O)o1,"inconclusive: 3.98 µM [inhibitor, full curve, poor fit]",
O=[N+]([O-])CC(c1ccc(F)cc1)c1c[nH]c2ccccc12 (centres undefined),,inactive: 2.02% [at 102 µM]
COc1cccc(NC(=O)CSc2nnc(-c3ccoc3C)n2C)c1,,inactive: -14.5% [at 102 µM]
C=CCn1c(=O)[nH]c2cc(C(=O)N3CCN(c4ccc(C(C)=O)cc4)CC3)ccc2c1=O,"inconclusive: 22.4 µM [inhibitor, single point]",
N#CC1=C(N)Oc2n[nH]c(-c3cccs3)c2C1C1CCCCC1 (centres undefined),"inconclusive: 22.4 µM [inhibitor, partial curve, poor fit]",
Cc1ccccc1NC(=O)c1ccc(NC(=O)c2ccco2)cc1,"inconclusive: 50.1 µM [inhibitor, partial curve, poor fit]",
